Results taken from the supplement of paper PMC10369915.
Some of the results follow. Cut-off read from the data, not from the text of the source: active = 3.2 or more and inactive = the rest. The signal is at background level for most entries.

B1: RET_Y806 (peptide)
chain: LLIVEYAKYGS
B2: RET_Y806_YF (peptide)
chain: LLIVEYAKFGS
B3: RET_Y809_R813Q_YF (peptide)
chain: VEFAKYGSLQG
B4: RET_Y809_V804L_YF (peptide)
chain: LEFAKYGSLRG
B5: RET_Y826 (peptide)
chain: KVGPGYLGSGG
B6: RET_Y900_R897Q_YF (peptide)
chain: LSQDVYEEDSF
B7: RET_Y905 (peptide)
chain: YEEDSYVKRSQ
B8: RET_Y905_K907T (peptide)
chain: YEEDSYVTRSQ
B9: RET_Y981 (peptide)
chain: CSEEMYRLMLQ
B10: RET_Y981_R982C (peptide)
chain: CSEEMYCLMLQ
B11: RFX2_Y82 (peptide)
chain: GGDAVYTNGAI
B12: RGS13_Y146 (peptide)
chain: LKSEMYQKLLK
B13: RGS13_Y146_L150F (peptide)
chain: LKSEMYQKLFK
B14: RHBDD1_Y264_D262G_YF (peptide)
chain: RNFGTYTAGLS
B15: RHBDD1_Y264_YF (peptide)
chain: RNFDTYTAGLS
B16: RHO_Y136_R135G (peptide)
chain: LAIEGYVVVCK
B17: RHO_Y301 (peptide)
chain: KSAAIYNPVIY
B18: RHO_Y301_K296E_YF (peptide)
chain: ESAAIYNPVIF

The binders below were run against SHP2 C-SH2 domain E139D (assay: enrichment score (SH2-bound / input frequency) (ratio); bacterial display of known human phosphotyrosine sites (pTyr-Var adds point mutants) read by sequencing; higher = stronger binding; tyrosines were phosphorylated by kinases first). Settings: peptide library: pTyr-Var.
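Note: displayed peptides selected on beads carrying the immobilized SH2 domain, with library peptides lacking any tyrosine serving as negative controls.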

| Binder | enrichment score |
| --- | --- |
| B1 | active: 3.24 |
| B2 | inactive: 2.91 |
| B3 | inactive: 0.879 |
| B4 | inactive: 0.71 |
| B5 | inactive: 0.803 |
| B6 | inactive: 0.519 |
| B7 | inactive: 0.735 |
| B8 | inactive: 0.567 |
| B9 | inactive: 1.07 |
| B10 | inactive: 2.23 |
| B11 | inactive: 0.649 |
| B12 | inactive: 0.584 |
| B13 | inactive: 1.24 |
| B14 | inactive: 0.888 |
| B15 | inactive: 0.517 |
| B16 | inactive: 1.05 |
| B17 | inactive: 1.03 |
| B18 | inactive: 0.715 |

Each binder was assayed against SHP2 C-SH2 domain wild-type in the same assay as above. Settings: peptide library: pTyr-Var.

| Binder | enrichment score |
| --- | --- |
| B1 | inactive: 2.4 |
| B2 | active: 3.63 |
| B3 | inactive: 0.838 |
| B4 | inactive: 0.749 |
| B5 | inactive: 0.806 |
| B6 | inactive: 0.601 |
| B7 | inactive: 0.428 |
| B8 | inactive: 0.491 |
| B9 | inactive: 1.42 |
| B10 | inactive: 2.29 |
| B11 | inactive: 0.669 |
| B12 | inactive: 0.785 |
| B13 | inactive: 0.747 |
| B14 | inactive: 0.74 |
| B15 | inactive: 0.578 |
| B16 | inactive: 1.36 |
| B17 | inactive: 0.987 |
| B18 | inactive: 0.8 |

Each binder was assayed against SHP2 N-SH2 domain L43F in the same assay as above. Settings: peptide library: pTyr-Var.

| Binder | enrichment score |
| --- | --- |
| B1 | inactive: 3.05 |
| B2 | inactive: 3.05 |
| B3 | inactive: 0.67 |
| B4 | inactive: 0.733 |
| B5 | inactive: 0.786 |
| B6 | inactive: 0.494 |
| B7 | inactive: 0.554 |
| B8 | inactive: 0.5 |
| B9 | inactive: 1.07 |
| B10 | inactive: 2.08 |
| B11 | inactive: 0.626 |
| B12 | inactive: 0.567 |
| B13 | inactive: 0.755 |
| B14 | inactive: 0.82 |
| B15 | inactive: 0.942 |
| B16 | inactive: 0.952 |
| B17 | inactive: 0.857 |
| B18 | inactive: 0.702 |

What follows are binders tested against SHP2 N-SH2 domain T42A in the same assay as above. Settings: peptide library: pTyr-Var.

| Binder | enrichment score |
| --- | --- |
| B1 | inactive: 2.41 |
| B2 | inactive: 2.85 |
| B3 | inactive: 0.801 |
| B4 | inactive: 0.567 |
| B5 | inactive: 0.744 |
| B6 | inactive: 0.454 |
| B7 | inactive: 0.606 |
| B8 | inactive: 0.513 |
| B9 | inactive: 0.878 |
| B10 | inactive: 2.21 |
| B11 | inactive: 0.615 |
| B12 | inactive: 0.477 |
| B13 | inactive: 0.788 |
| B14 | inactive: 0.897 |
| B15 | inactive: 0.533 |
| B16 | inactive: 1.13 |
| B17 | inactive: 0.791 |
| B18 | inactive: 0.663 |

The binders below were run against SHP2 N-SH2 domain T52S in the same assay as above. Settings: peptide library: pTyr-Var.

| Binder | enrichment score |
| --- | --- |
| B1 | inactive: 2.74 |
| B2 | inactive: 2.76 |
| B3 | inactive: 0.835 |
| B4 | inactive: 0.677 |
| B5 | inactive: 0.824 |
| B6 | inactive: 0.593 |
| B7 | inactive: 0.673 |
| B8 | inactive: 0.426 |
| B9 | inactive: 1.16 |
| B10 | inactive: 2.24 |
| B11 | inactive: 0.626 |
| B12 | inactive: 0.35 |
| B13 | inactive: 0.633 |
| B14 | inactive: 0.765 |
| B15 | inactive: 0.675 |
| B16 | inactive: 0.807 |
| B17 | inactive: 0.915 |
| B18 | inactive: 0.963 |

These binders were tested against SHP2 N-SH2 domain wild-type in the same assay as above. Settings: peptide library: pTyr-Var.

| Binder | enrichment score |
| --- | --- |
| B1 | inactive: 2 |
| B2 | inactive: 2.91 |
| B3 | inactive: 0.853 |
| B4 | inactive: 0.686 |
| B5 | inactive: 0.615 |
| B6 | inactive: 0.686 |
| B7 | inactive: 0.785 |
| B8 | inactive: 0.574 |
| B9 | inactive: 1.37 |
| B10 | inactive: 2.24 |
| B11 | inactive: 0.746 |
| B12 | inactive: 0.57 |
| B13 | inactive: 0.688 |
| B14 | inactive: 1.02 |
| B15 | inactive: 0.74 |
| B16 | inactive: 1.49 |
| B17 | inactive: 1.01 |
| B18 | inactive: 0.881 |
